# Assay results: the supplement of paper PMC12632987
# Over roughly 4,500 sequences, “median log2 fold change of GCK-ALFA target abundance (FLAG IP / Myc IP barcode read proportion)” has its median near 0.078; the lowest 2% begin near -0.6. The list shows a part of the results.
# B1: GBRAP_125_2979 (protein)
# chain: ASEEELEDLRLVARALGLDEEDAEEAVELARAHSIRGTLYAIAAALGWEELADAVARLTEEQARAVLRETAAWIRAHPDATPEEVAARLLAVARAALAAA
# B2: GBRAP_125_3113 (protein)
# chain: SMEELLENLRIVMKALGFDEDDIEEAVKLAKEFGLKQTLIAIFLAEGWEEVAELVDKLTDEQVKEALKELAAYIKAHPDLTPEEVKEKALEIFKELLAKQ
# B3: GBRAP_160_4281 (protein)
# chain: GEELKKLAEELKKMKEEILSLVDKVSAEEIRTFAVTELGSILMEAIDGGLLSDEQEDELAKIRDELEKELKKLENASPEEIKEAIEKHFNKAIELLEKAA
# B4: GBRAP_11_2646 (protein)
# chain: MKETLEKAAELAKKAAEAVKKLIEEGVDNEELIKEAEELLKKLKELTEKHLSEADKTEVEVAEELFKEFLADKENKLEYAEQLLAALRVLHGNYLLDRDE
# B5: GBRAP_26_5447 (protein)
# chain: LEEKLKELEDELDALIDELLPPELAGPAKAELLTLLEEYEEKAEENKDNEEELKKIAEETVEEFRRELELLGVPAEVIEKLTKALKEGLEEILEELKKEK
# B6: GBRAP_74_6536 (protein)
# chain: SEEKEKVIKEINEAETIEEAIEITEKVLETDDKELARAAVQELLLKAAERKDELTLEEAERLVEVIVRAFEKNGIVVETREEAEALNTVLTKALELEEKA
# B7: GBRAP_78_6588 (protein)
# chain: DIEEAIDRFLEAAGEAMRLLSKDPSPLAQDLLGELIDEVSEIEEAFEEENDLEEIKEEAEEAAEALRAALEQREQFSPETVAAIERALKAAEELIELLEE
# B8: GBRAP_52_5861 (protein)
# chain: AVEEALALLEAAIAAMKAGKREEAEKILKEIVENFDEETILAAAELLAERLAEATPEEAEAAFETAELLGEILEKAGFDEEVVTLVEDTIGAAVARVEAR
# Target: GABARAP, O95166
# Sequence (O95166 whole entry, the tested form may be a part): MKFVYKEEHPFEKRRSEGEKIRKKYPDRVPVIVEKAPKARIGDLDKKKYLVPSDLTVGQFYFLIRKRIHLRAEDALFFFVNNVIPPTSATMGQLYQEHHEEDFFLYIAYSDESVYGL
# Experiment: median log2 fold change of GCK-ALFA target abundance (FLAG IP / Myc IP barcode read proportion) (log2 ratio); each designed protein is fused to an ALFA-tag nanobody in HEK293 cells to bring the named protein to FLAG-tagged glucokinase (GCK); Myc marks an untargeted standard; higher = target protein stabilised (more abundant)
# Settings: target protein: 3xFLAG-MCP-GCK-ALFA reporter; HEK293 landing pad (RPLP)
# Outline: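 Binders fused to an ALFA nanobody were recombined as a library into HEK293 landing-pad cells, which were induced with 2 μg mL^−1 doxycycline and then transfected to express a FLAG-tagged target and a Myc-tagged standard. After 48 h, circular RNA barcodes recovered by anti-FLAG and anti-Myc immunoprecipitation of lysates were reverse transcribed, amplified and sequenced. Each binder's target abundance is the median log2 ratio of FLAG to Myc barcode read proportions, from barcodes present at ≥10^−7 in both replicates, binders carrying ≥3 barcodes per replicate, a 10^−6 pseudocount and pooled replicates.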
row,Binder,median log2 fold change
1,B1,-0.341
2,B2,-0.272
3,B3,0.321
4,B4,0.381
5,B5,0.457
6,B6,-0.769
7,B7,-0.32
8,B8,-0.00948
